Results on 47 molecules are retold here after PubChem BioAssay AID1508623 (National Center for Advancing Translational Sciences (NCATS), 2021).

The campaign covered roughly 48,000 compounds. About 450 (0.94%) were called active. Inconclusive results (about 19%) are left out. Calls follow the shape of the dose curve; as a rule, active = well fitted inhibition curve with a large enough effect; inconclusive = small, poorly fitted or top-dose-only effect; inactive = no such curve, though single readings can be large or run the other way. The list shows a part of the results.

This experiment is described as follows: Primary qHTS for Identification of Small Molecule Inhibitors of Huntingtin Promoter Activity. Also: nearly all actives have a fitted effect of over 50% in size. To be noted: HEK293 HTT promoter firefly luciferase reporter (activity 0% = vehicle and -100% = no light), 24 h; series mostly up to 57.5 µM; activity change, negative = inhibition: at the top concentration. A digest of the protocol: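 Firefly luciferase signal from promoter-reporter HEK293 cells was scaled between vehicle (0%) and zero RLU (-100%). Compounds were tested at final concentrations of up to 57.5 uM over 24 h at 37 degrees C. PTC124 at 50 uM final served as control inhibitor.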
For `COc1ccc(NC(=O)C(CC(C)C)NC(=O)C2CCCCC2)c(OC)c1` (configuration not stated), the “activity change, negative = inhibition” value is inactive: -7.28%.

As to `COc1ccc(-n2c(=O)c3ccccc3n(Cc3ccc(F)cc3Cl)c2=O)cc1OC`, the “activity change, negative = inhibition” value is inactive: -22.4%.

As to `COc1ccc(NC(=O)C2CCN(C(=O)c3sc4nc[nH]c(=O)c4c3C)CC2)c(OC)c1`, the “activity change, negative = inhibition” value is inactive: -1.81%.

As to `CCc1ccccc1N1CC(c2nnc(NC(=O)c3ccco3)s2)CC1=O` (configuration not stated), the “activity change, negative = inhibition” value is inactive: -12.7%.

As for `CCN(CC)S(=O)(=O)c1ccc2c(c1)N(CC(=O)N1CCN(c3cc(Cl)ccc3C)CC1)C(=O)CO2`, the “activity change, negative = inhibition” value is inactive: -9.01%.

For `CC(=O)OCc1cnc(C)c2oc(=O)c(C(=O)Nc3ccc(F)cc3C)cc12`, the “activity change, negative = inhibition” value is inactive: -6.14%.

`Cc1cccc(N2CCN(c3nc4ccccc4c4nc(-c5ccccc5)nn34)CC2)c1C`: the “activity change, negative = inhibition” value was inactive: -3.25%.

As for `CC(=O)Nc1nonc1-c1nnc(SCC(=O)Nc2ccccc2Cl)n1C`, the “activity change, negative = inhibition” value was inactive: -9.85%.

As to `COc1ccc(C2CC(=O)c3cc(-c4nc(-c5ccc(Cl)cc5)cs4)c(=O)[nH]c3C2)cc1` (configuration not stated), the “activity change, negative = inhibition” value was inactive: -15.3%.

Take `CC1(C)O[C@@H]2C[C@H]3[C@@H]4C[C@H](F)C5=CC(=O)CC[C@]5(C)[C@H]4[C@@H](O)C[C@]3(C)[C@]2(C(=O)CO)O1`: the “activity change, negative = inhibition” value is inactive: 10.3%.

As for `CCC(Cc1ccccc1)NC(=O)c1csc2c1CCCCC2` (configuration not stated), the “activity change, negative = inhibition” value is inactive: -9.57%.

`COc1ccc2c(C)cc(SCC(=O)Nc3nsc(-c4ccc(C(C)(C)C)cc4)n3)nc2c1`: the “activity change, negative = inhibition” value was inactive: 56.3%.

Take `C[C@H]1C[C@H]2[C@@H]3CCC4=CC(=O)C=C[C@]4(C)[C@H]3C(=O)C[C@]2(C)[C@@]1(O)C(=O)CO`: the “activity change, negative = inhibition” value is inactive: 31.3%.

In the case of `COc1ccc2oc(-c3ccc(C)c(NC(=O)c4ccc(N5CCCCC5)c([N+](=O)[O-])c4)c3)nc2c1`, the “activity change, negative = inhibition” value was inactive: 2.99%.

`CC(C)(C)OC(=O)N1CCC(c2c(C(=O)NCCN3CCOCC3)cnn2-c2ccccc2)CC1`: the “activity change, negative = inhibition” value is inactive: -20.1%.

In the case of `COc1ccccc1NC(=O)C1=C(C)Nc2ncnn2C1c1ccc[nH]1` (configuration not stated), the “activity change, negative = inhibition” value was inactive: -18%.

Regarding `COc1ccc(CNC(=O)CN2CCSc3ccccc32)c(OC)c1`, the “activity change, negative = inhibition” value is inactive: -18.6%.

Take `CCN(CC)C(=O)Cn1c(SCC(=O)Nc2ccc(C)c(C)c2)nc2ccccc21`: the “activity change, negative = inhibition” value was inactive: -22.6%.

As for `O=C(Cn1c(=O)oc2ccccc21)NCc1ccc(Cl)cc1`, the “activity change, negative = inhibition” value was inactive: 9.38%.

In the case of `Cc1ccc(-n2ncc3c(NCCc4ccccc4)ncnc32)cc1`, the “activity change, negative = inhibition” value is inactive: 17.1%.

For `CCOc1ccc(S(=O)(=O)n2nc(C)c(S(=O)(=O)N3CCCCCC3)c2C)cc1`, the “activity change, negative = inhibition” value was inactive: -11.2%.

For the molecule `Cc1cc2oc(C(=O)N(Cc3ccccc3)C3CCS(=O)(=O)C3)cc(=O)c2cc1C` (configuration not stated), the “activity change, negative = inhibition” value was inactive: -11.3%.

For the molecule `CN1CCN(c2ncc3c(n2)CCN(Cc2ccccc2Cl)C3)CC1`, the “activity change, negative = inhibition” value was inactive: -13.5%.

For the molecule `Cc1ccccc1C(=O)Nc1ccccc1C(=O)OCc1cc(=O)n2nc(C3CC3)sc2n1`, the “activity change, negative = inhibition” value was inactive: -12.6%.

Turning to `Cc1ccc(NC(=O)CN2C(=O)C(c3ccccc3)=NC2(C)C)cc1C`, the “activity change, negative = inhibition” value was inactive: 1.27%.

For the molecule `COc1cccc(C(=O)Nc2ccc3c(c2)CCCN3C(=O)c2cccs2)c1OC`, the “activity change, negative = inhibition” value is inactive: -24.6%.

With `Cc1ccc(S(=O)(=O)OCC(=O)Nc2ccc(C(=O)O)c(O)c2)cc1`, the “activity change, negative = inhibition” value is inactive: 2.62%.

In the case of `Cc1cc(-c2nc3ncccc3o2)ccc1NC(=O)COc1ccc(C(C)(C)C)cc1`, the “activity change, negative = inhibition” value was inactive: 9.84%.

As to `Cc1c2cnn(-c3ccccc3)c(=O)c2c(C)n1CC(=O)NCc1ccc(Cl)cc1`, the “activity change, negative = inhibition” value was inactive: -11.5%.

Consider `Cc1[nH]c(C)c(Cl)c(=O)c1Cl`, for which the “activity change, negative = inhibition” value was inactive: -4.34% [at 25.2 µM].

In the case of `CC1=C(C(N)=O)C(c2ccc(C(C)C)cc2)n2nc(SCc3ccccc3F)nc2N1` (configuration not stated), the “activity change, negative = inhibition” value is inactive: -12.4%.

In the case of `CCn1cc2nc(SCc3cccc(C(F)(F)F)c3)n(CCc3ccccc3)c(=O)c2n1`, the “activity change, negative = inhibition” value was inactive: -5.59%.

Take `CCOc1ccc(NC(=O)Cn2cnc3nc4c(cc3c2=O)CCCC4)cc1`: the “activity change, negative = inhibition” value is inactive: -8.14%.

For the molecule `Cc1c(CCNC(=O)c2ccc(C(F)(F)F)cc2)sc2nc(-c3ccc(F)cc3)nn12`, the “activity change, negative = inhibition” value was inactive: 4.17%.

As to `COc1ccc(CCNC(=O)Cn2c(C)c3cnn(-c4ccccc4)c(=O)c3c2C)cc1OC`, the “activity change, negative = inhibition” value was inactive: -11.3%.

Take `COc1ccc(-c2[nH]c(-c3ccc(F)cc3)nc2SCC(=O)Nc2ccc(OC)c(OC)c2)cc1`: the “activity change, negative = inhibition” value is inactive: -30%.

On to `Fc1ccc(-n2ncc3c(Nc4ccc(Oc5ccc(Cl)cc5)cc4)ncnc32)cc1`, for which the “activity change, negative = inhibition” value is inactive: -9.04%.

With `Cc1ccc(N2CC(c3nnc(Cc4ccc(F)cc4Cl)o3)CC2=O)cc1` (configuration not stated), the “activity change, negative = inhibition” value is inactive: -1.72%.

For the molecule `CCOC(=O)c1ccc(NC(=O)Cn2nnc(-c3ccc(C(F)(F)F)cc3)n2)cc1`, the “activity change, negative = inhibition” value is inactive: -8.34%.

With `COc1ccc2c(c1)c(N1CCCC1=O)c(C(=O)Nc1ccc(Cl)cc1C)n2C`, the “activity change, negative = inhibition” value is inactive: -29.7%.

For the molecule `CCN1Cc2cccc(C(=O)Nc3ccc(F)cc3)c2C1=O`, the “activity change, negative = inhibition” value was inactive: -10%.

Turning to `CCOC(=O)c1ccc(OCC2c3cc(OC)c(OC)cc3CCN2C(=O)Cc2ccc(OC)c(OC)c2)cc1` (configuration not stated), the “activity change, negative = inhibition” value is inactive: -15.5%.

`C[C@@H]1C[C@H]2[C@@H]3CCC4=CC(=O)C=C[C@]4(C)[C@@]3(F)[C@@H](O)C[C@]2(C)[C@@]1(O)C(=O)COC(=O)c1ccncc1`: the “activity change, negative = inhibition” value is inactive: -3.53%.

Take `COc1ccc(CCNC(=O)CCCn2c(=O)c3ccccc3n(CC(=O)Nc3c(C)cc(C)cc3C)c2=O)cc1OC`: the “activity change, negative = inhibition” value was inactive: -6.35%.

Turning to `CCOC(=O)c1c(-c2ccc(C)cc2)csc1NC(=O)c1ccc(C(C)(C)C)cc1`, the “activity change, negative = inhibition” value was inactive: -9.13%.

As for `CCc1ccc(NC(=O)CCS(=O)(=O)c2ccc3c(c2)oc(=O)n3C)cc1`, the “activity change, negative = inhibition” value is inactive: -6.65%.

With `COC(=O)c1ccc(OC)c(Cn2c(=O)n(-c3cccc(Cl)c3)c(=O)c3c2c2cc(C)ccc2n3C)c1`, the “activity change, negative = inhibition” value was inactive: -8.41%.
